# Data published in PubChem BioAssay AID588342 (National Center for Advancing Translational Sciences (NCATS), 2011).
# The whole screen tested about 360,000 compounds, of which about 25,000 (6.9%) were called active. The shares of active, inactive and inconclusive entries below differ from those in the screen. The call rests on the fitted dose curve; in most records, active means well fitted inhibition curve with a large enough effect; inconclusive means small, poorly fitted or top-dose-only effect; inactive means flat fitted curve, though single readings scatter. Potencies of inconclusive entries are doubtful fits and often do not repeat.
# Target: Luciferin 4-monooxygenase (Photinus pyralis) (UniProt P08659)
# UniProt P08659, sequence (P08659 whole entry, looked up): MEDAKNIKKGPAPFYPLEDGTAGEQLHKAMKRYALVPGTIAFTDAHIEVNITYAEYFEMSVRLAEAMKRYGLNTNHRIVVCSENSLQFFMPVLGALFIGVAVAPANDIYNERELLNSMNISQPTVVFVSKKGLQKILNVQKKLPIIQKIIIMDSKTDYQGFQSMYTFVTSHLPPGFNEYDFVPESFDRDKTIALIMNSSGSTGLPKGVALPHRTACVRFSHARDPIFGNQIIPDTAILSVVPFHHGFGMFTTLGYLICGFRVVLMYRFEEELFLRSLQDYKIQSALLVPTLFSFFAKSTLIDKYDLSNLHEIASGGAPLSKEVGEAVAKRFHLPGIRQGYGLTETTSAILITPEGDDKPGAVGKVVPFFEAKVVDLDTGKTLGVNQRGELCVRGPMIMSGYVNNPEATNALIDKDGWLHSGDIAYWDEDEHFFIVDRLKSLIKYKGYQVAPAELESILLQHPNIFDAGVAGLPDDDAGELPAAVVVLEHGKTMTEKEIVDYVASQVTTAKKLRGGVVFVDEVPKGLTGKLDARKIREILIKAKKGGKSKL
# Assay: qHTS profiling assay for firefly luciferase inhibitor/activator using purifed enzyme and Km concentrations of substrates (counterscreen for miR-21 project); further: nearly all actives have a fitted effect of over 55% in size;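 on activity change, negative = inhibition: plate controls were vehicle for no effect and reference inhibitor for full effect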
# Settings: purified FLuc, luminescence inhibition; activity change, negative = inhibition: at 57.5 µM (top of the series)
# How it was run: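 Purified P. pyralis luciferase, 10 nM final, with Km-level 10 uM D-luciferin and 10 uM ATP in 50 mM Tris acetate pH 7.5, 10 mM Mg acetate, 0.01% Tween-20, 0.05% BSA; 6-point qHTS titration about 60 µM downward; luminescence read.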
# Potency means the concentration at half of the fitted maximal effect; tags describe the fitted curve by direction and shape.
SMILES,"activity change, negative = inhibition",Potency
CCOCCCn1c(=O)c2ccccc2n2c(=S)[nH]nc12,inactive: -2.12%,–
C#CCOCCOCCOCCNc1nc(N2CCN(C(=O)CCCCCCCCCCNC(=O)Cn3cc(CCCCCN)nn3)CC2)nc(N2CCN(C(=O)CCCCCCCCCCNC(=O)[C@H]([C@@H](C)CC)n3cc(CCCCN=C(N)N)nn3)CC2)n1,–,"inconclusive: 26.9 µM [inhibitor, single point]"
Cc1ccc(-c2nn(-c3ccccc3)cc2/C=C2\SC(=S)N(CC(=O)O)C2=O)cc1,–,"inconclusive: 23.9 µM [inhibitor, partial curve, poor fit]"
Cc1ccc(-c2nnc(N3CCC(C)CC3)c3ccccc23)cc1,–,"inconclusive: 37.9 µM [inhibitor, partial curve, poor fit]"
COc1cccc2sc3ccc(C#CC4(N)CCCCC4)cc3c(=O)c12,–,active: 19 µM
CCOC(=O)N1CCN(c2ccc(C(=O)c3cccc(F)c3)cc2)CC1,–,"inconclusive: 30.1 µM [inhibitor, single point]"
COc1cc2nc(N3CCN(C(=O)C4CCCO4)CC3)nc(N)c2cc1OC (stereo not drawn),–,"inconclusive: 37.9 µM [inhibitor, partial curve, poor fit]"
COC(=O)Nc1ccc(S(=O)(=O)N2CCCC(C(=O)Nc3cccnc3)C2)cc1 (stereo not drawn),inactive: -2.22%,–
CN(C(=O)CSc1nc(N)c2c3c(sc2n1)CSC(C)(C)C3)c1ccccc1,–,"inconclusive: 19 µM [inhibitor, partial curve, poor fit]"
Cc1ccc(C(=O)CNc2ccccc2C)cc1,–,active: 6.01 µM
Cc1cc(C)cc(NC(=O)C(NS(=O)(=O)c2cccc3nsnc23)c2ccccc2)c1 (stereo not drawn),–,"inconclusive: 10.7 µM [inhibitor, partial curve, poor fit]"
Cc1ccccc1OC(C)C(=O)Nc1ccc2c(c1)OCCO2 (stereo not drawn),–,"inconclusive: 30.1 µM [inhibitor, single point]"
COCc1cccc(NC(=O)Cc2cccc3ccccc23)c1,–,"inconclusive: 23.9 µM [inhibitor, single point]"
O=[N+]([O-])c1ccc2nc(-c3ccccc3[N+](=O)[O-])[nH]c2c1,–,"inconclusive: 30.1 µM [inhibitor, single point]"
COc1ccc(C(=O)NC(=S)SCC(=O)O)cc1,–,"inconclusive: 37.9 µM [inhibitor, single point]"
O=C(CCCN1C(=O)/C(=C/c2ccccc2Cl)SC1=S)NCCCN1CCOCC1,–,active: 16.9 µM
COc1ccc(C2=NN(c3nc(-c4ccc(CNC(C)=O)cc4)cs3)C(c3ccco3)C2)cc1 (stereo not drawn),inactive: -15%,–
COc1ccc(C2c3[nH]c4ccccc4c3CCN2CCCn2cccn2)cc1C (stereo not drawn),–,"inconclusive: 26.9 µM [inhibitor, partial curve, poor fit]"
